About 2,200 (0.71%) of roughly 310,000 compounds showed an effect of 50% or more. The effect is printed as a negative number. Some of the results follow.

In this assay the target is human ether-à-go-go-related gene (hERG) potassium channel (human, UniProt Q12809). In words: primary screen, population patch clamp on CHO cells stably expressing hERG.
human ether-à-go-go-related gene (hERG) potassium channel, sequence (Q12809 whole entry, looked up): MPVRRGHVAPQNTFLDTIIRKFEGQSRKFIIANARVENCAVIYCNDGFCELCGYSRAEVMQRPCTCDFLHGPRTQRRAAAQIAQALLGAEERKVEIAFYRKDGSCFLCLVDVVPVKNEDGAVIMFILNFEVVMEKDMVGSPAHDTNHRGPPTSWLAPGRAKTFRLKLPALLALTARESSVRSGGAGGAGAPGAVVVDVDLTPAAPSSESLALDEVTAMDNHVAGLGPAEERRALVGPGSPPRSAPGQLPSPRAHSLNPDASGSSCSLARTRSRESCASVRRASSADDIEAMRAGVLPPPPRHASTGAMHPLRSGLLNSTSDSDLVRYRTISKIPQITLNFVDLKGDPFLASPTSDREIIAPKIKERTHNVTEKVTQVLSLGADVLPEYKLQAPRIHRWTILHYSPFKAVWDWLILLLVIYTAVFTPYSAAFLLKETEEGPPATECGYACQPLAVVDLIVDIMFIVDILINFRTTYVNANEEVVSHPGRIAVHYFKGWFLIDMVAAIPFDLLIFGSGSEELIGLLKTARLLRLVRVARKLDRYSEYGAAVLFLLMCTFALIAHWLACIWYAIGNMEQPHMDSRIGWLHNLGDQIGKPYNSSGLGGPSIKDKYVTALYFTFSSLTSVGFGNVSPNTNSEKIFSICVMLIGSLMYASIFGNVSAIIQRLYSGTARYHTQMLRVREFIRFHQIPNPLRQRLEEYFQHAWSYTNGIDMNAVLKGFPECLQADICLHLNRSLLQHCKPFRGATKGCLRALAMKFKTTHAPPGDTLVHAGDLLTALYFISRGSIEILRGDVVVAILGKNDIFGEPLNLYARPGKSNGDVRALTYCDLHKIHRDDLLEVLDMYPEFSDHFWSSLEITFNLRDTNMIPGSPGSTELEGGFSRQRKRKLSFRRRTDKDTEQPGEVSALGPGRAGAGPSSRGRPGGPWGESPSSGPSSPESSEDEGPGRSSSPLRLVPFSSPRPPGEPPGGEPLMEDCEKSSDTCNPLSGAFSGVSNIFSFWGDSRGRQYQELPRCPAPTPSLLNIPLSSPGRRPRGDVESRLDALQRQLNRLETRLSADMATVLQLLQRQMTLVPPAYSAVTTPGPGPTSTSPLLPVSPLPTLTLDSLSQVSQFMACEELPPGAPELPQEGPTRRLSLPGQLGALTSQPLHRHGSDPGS
With `COc1cccc(/C=N/NC(=O)CNC(=O)c2ccco2)c1O`, the “hERG current change (%, negative = inhibition) at 1uM” value came to 9.7%. The same measure for `CC1Oc2ccccc2N(CC(=O)NC2CCCC2)C1=O` (centres unmarked): 12%; for `COc1ccccc1N1CCN(C(=O)c2cc(-c3ccc(Cl)cc3)on2)CC1`: 5.86%; for `O=C(NCc1ccccc1)c1ccc(COCC(F)(F)F)o1`: -0.584%. Take `C=CCNC(=O)CSc1cc([N+](=O)[O-])cc(S(=O)(=O)Cc2ccccc2)c1`: the “hERG current change (%, negative = inhibition) at 1uM” value is recorded as -5.51%. As to `O=C(Nc1ccc2c(c1)OCO2)N1CCN(c2ccccc2Cl)CC1`, the “hERG current change (%, negative = inhibition) at 1uM” value was 7.93%. `Cc1[nH]c2ccc(O)cc2c1CCN.O=C([O-])/C=C\C(=O)[O-]`: the “hERG current change (%, negative = inhibition) at 1uM” value stood at 15.6%.

Take `CCCS(=O)(=O)N1CCN(C(=O)c2cccc(OC)c2)CC1`: the “hERG current change (%, negative = inhibition) at 1uM” value is recorded as 4.07%. The same measure for `COc1ccc(C2N=C(Nc3ccc(C)cc3)Nc3nc(C)cc(=O)n32)cc1` (centres unmarked): 15%. The same measure for `CCCc1cc(NCCN(C)C)n2c(nc3ccccc32)c1C#N`: 7.99%; for `CCCS(=O)(=O)N1CCN(Cc2ccncc2)CC1.O=C(O)C(=O)O`: 9.18%; for `S=C(Nc1ccccc1)N1CCN(C/C=C/c2ccccc2)CC1`: -2.07%.

Regarding `CCOC(=O)C1(Cc2ccccc2C)CCCN(S(=O)(=O)c2cccnc2)C1` (centres unmarked), the “hERG current change (%, negative = inhibition) at 1uM” value was determined as 9.61%. The same measure for `NNC(=O)c1ccc(CN2C(=O)c3cccc4cccc2c34)cc1`: 2.68%; for `O=C(CSc1nnc(-c2ccccc2)c(-c2ccccc2)n1)NCc1ccco1`: -4.49%; for `Cc1cccc(NC(=O)CSC(N)=O)c1C`: 13.6%. The same measure for `O=C(NC(=S)Nc1ccc(Cl)c(C(=O)O)c1)c1cncc(Br)c1`: 16.2%. As to `Cn1cccc1/C=C1\C(=O)NC(=O)N(Cc2ccccc2)C1=O`, the “hERG current change (%, negative = inhibition) at 1uM” value was 10%. The same measure for `COc1ccc(/C=C(/NC(=O)c2ccccc2)c2nc3ccccc3[nH]2)cc1OC`: 0.582%; for `CCOC(=O)c1nnn(-c2nonc2N)c1COc1ccc(F)cc1`: -7.97%; for `CC(C)(C)c1nc2scc(-c3ccc(Br)cc3)c2c(=O)o1`: 9.4%. As to `CC1(C)OC(=O)C(=CNc2ccccn2)C(=O)O1`, the “hERG current change (%, negative = inhibition) at 1uM” value came to 2.23%.

As to `CC(C)CC(CO)N1CCN(C(=O)c2ccc(Cl)cc2)CCC1=O` (centres unmarked), the “hERG current change (%, negative = inhibition) at 1uM” value is -0.496%.

As to `O=C(CNS(=O)(=O)c1ccc2c(c1)OCCCO2)N1CCN(Cc2ccccc2)CC1`, the “hERG current change (%, negative = inhibition) at 1uM” value is recorded as 12.2%. Take `C/C(=C\c1ccccc1)C(=O)Nc1ccc(S(=O)(=O)Nc2ncccn2)cc1`: the “hERG current change (%, negative = inhibition) at 1uM” value worked out at 10.9%. The same measure for `Cn1cc(S(=O)(=O)Nc2ccc(OC(F)(F)F)cc2)c(=O)n(C)c1=O`: 14.5%; for `COc1cc(CC(=O)NC(c2ccccc2)c2ccccc2)cc(OC)c1OC`: 13.5%; for `CC(C)(C)C(=O)Nc1ccc(C(=O)N/N=C/c2ccccc2OC(=O)c2ccc(Cl)cc2Cl)cc1`: 7.9%. The same measure for `CCOC(=O)C1=CN(Cc2ccc(OC)cc2)C=C(C(=O)OCC)C1c1cccs1`: 12.4%; for `COC(=O)C1C(=O)/C(=C/N(C)C)C(=O)CC1(C)C` (centres unmarked): 8.87%; for `CN1CCN(C(c2ccc(Br)cc2)c2cc(Cl)c3cccnc3c2O)CC1` (centres unmarked): 6.2%. As for `N=c1oc2ccc3ccccc3c2cc1-c1nnc2n1CCCCC2`, the “hERG current change (%, negative = inhibition) at 1uM” value is 5.57%. The same measure for `O=C(O)C1CC=CCC1C(=O)NCCc1ccccc1` (centres unmarked): 14.8%; for `CC1CN(Cc2ccccc2)c2nc3c(c(=O)n(C)c(=O)n3C)n2C1` (centres unmarked): -16.8%; for `Cc1ccc(C(=O)Nc2ccc(C)c(S(=O)(=O)N(C)C)c2)s1`: 8.91%.

`CCN(CC)S(=O)(=O)c1ccc(N2CCN(C)CC2)c(NC(=O)CSCC(=O)Nc2cccc(C)c2)c1`: the “hERG current change (%, negative = inhibition) at 1uM” value came to 7.65%. The same measure for `CCN1CCN(c2ccc(S(=O)(=O)N3CCOCC3)cc2NC(=O)/C=C/c2ccc(OC)c(OC)c2)CC1`: 21.9%; for `COc1cc(OC)cc(C(=O)NCC(=O)NCCN2C(=O)S/C(=C\c3ccccc3Cl)C2=O)c1`: 4.11%. The same measure for `CC1(C)CC(=O)C(C(c2cccnc2)C2C(=O)CC(C)(C)CC2=O)C(=O)C1`: 2.02%; for `Cc1c(NC(=O)c2cccs2)cccc1NC(=O)c1cccs1`: 5.14%; for `CCOc1ccc(-n2c([S-])c(C(=O)Nc3ccc(S(=O)(=O)N4CCOCC4)cc3)[n+]3cc(C(N)=O)ccc23)cc1`: 12.1%. The same measure for `Cc1cccc(C)c1NC(=O)CS(=O)CC(=O)Nc1ccc(F)cc1F` (centres unmarked): 22.2%. On to `CCOc1ccc(S(=O)(=O)NCc2ccccc2)cc1C(N)=O`, for which the “hERG current change (%, negative = inhibition) at 1uM” value is given as 23.3%.

Take `O=C(c1cc(N2C(=O)C3C4CCC(C4)C3C2=O)ccc1Cl)N1CCN(c2ccccc2)CC1` (centres unmarked): the “hERG current change (%, negative = inhibition) at 1uM” value amounted to 8.36%. The same measure for `CCc1ccc(OCC(=O)NNC(=O)c2cc(S(=O)(=O)N3CCOCC3)ccc2N2CCCC2)cc1`: 1.63%.

Take `CN(C)c1ccc(/C=N/NC(=O)CN(c2ccccc2Cl)S(C)(=O)=O)cc1Br`: the “hERG current change (%, negative = inhibition) at 1uM” value was determined as 1.98%.

Consider `O=C(Nc1cccnc1)c1cc(-c2ccccc2O)on1`, for which the “hERG current change (%, negative = inhibition) at 1uM” value is on record as 11.3%. The same measure for `COc1ccc(-c2nc(C#N)c(NCC3CCCO3)o2)cc1OC` (centres unmarked): 7.63%; for `CSCCC(NC(=O)c1ccccc1)C(=O)NCC(C)(C)N1CCOCC1` (centres unmarked): 8.1%; for `Cc1cccc(NC(=S)N2CCC(C(=O)c3ccc(F)cc3)CC2)c1C`: 12.2%. The same measure for `CCOC(=O)C1C(=O)N(C(=O)c2cncc(Br)c2)CC1c1ccccc1` (centres unmarked): 8.46%; for `CN(NC(=O)c1ccc(Cl)cc1)c1nc(-c2ccccc2)nnc1C(F)(F)F`: 9.79%.

As for `Cc1c(C(=O)N2CCCCC2)oc2ccc(S(=O)(=O)N3CC(C)CC(C)C3)cc12` (centres unmarked), the “hERG current change (%, negative = inhibition) at 1uM” value is recorded as 12.4%. The same measure for `COCCn1c(=S)[nH]c2cc(C(=O)N3CCc4ccccc4C3)ccc2c1=O`: 11.9%.

Take `O=C(c1ccco1)N1CCN(C(=O)c2ccc(CS(=O)c3cccc(Cl)c3)o2)CC1` (centres unmarked): the “hERG current change (%, negative = inhibition) at 1uM” value stood at 8.79%. The same measure for `CCCc1nc2oc3c(NCCN(C)C)ncnc3c2c2c1CCCC2`: 3.67%. The same measure for `Cc1ccc(Oc2ccc(C=O)cn2)cc1`: 3.41%; for `COc1cccc(CN2C(=O)Nc3ccccc3C(=O)N2C(C)(C)C)c1`: 12.3%; for `CN1CCN(C(=O)N(c2ccccc2)c2ccccc2)CC1.Cl`: 13.5%.

Take `Cc1cc(=O)n2[nH]c(N)c(N=Nc3ccccc3F)c2n1`: the “hERG current change (%, negative = inhibition) at 1uM” value amounted to 8.75%. The same measure for `Cc1nc2ccc(S(=O)(=O)NC(C(=O)Nc3nccs3)C(C)C)cc2s1` (centres unmarked): 3.93%; for `C[N+]1(C)[C@@H]2CC[C@H]1CC(OC(=O)[C@@H](CO)c1ccccc1)C2.[I-]` (some centres unmarked): 14%; for `CC1CCc2c(sc3nc(C4CC4)nc(N4CCN(C(=O)c5ccco5)CC4)c23)C1` (centres unmarked): 7.31%. The same measure for `COc1ccccc1NS(=O)(=O)c1cc(NC(=O)c2cccs2)ccc1N1CCCCC1`: 12.6%; for `CC(C)(C)C1CCC(=O)N(CCOc2ccccc2)CC1` (centres unmarked): 6.17%; for `CC(NC(=O)Oc1ccccc1)C(c1cccs1)N1CCOCC1` (centres unmarked): -0.0387%. The same measure for `Cc1ccc(NC(=O)CNc2cccc(C)c2C)c(C)c1`: 11.9%; for `NC(=O)C1(N2CCCCC2)CCN(CC(=O)Nc2ccccc2-c2ccccc2)CC1`: 15.5%; for `Cc1ccc2oc(=O)c3cc(C(=O)NCCN4CCc5ccccc5C4)sc3c2c1`: -0.641%. On to `COc1cccc(CNc2ccc3[nH]c(=O)[nH]c3c2)c1OCc1ccc(F)cc1`, for which the “hERG current change (%, negative = inhibition) at 1uM” value worked out at 11.1%. The same measure for `N#CCCN(CCC#N)c1nncs1`: -3.95%; for `C[N+](C)(C)CCCCCCC(=O)/C=N/O.[I-]`: 12.2%.

In the case of `CCOc1ccc(CCNC(=O)c2cccs2)cc1OCC`, the “hERG current change (%, negative = inhibition) at 1uM” value is on record as 13.7%. The same measure for `COC(=O)C1=C(c2ccc(F)cc2OCc2ccccc2)C[C@@H]2CC[C@H]1N2C(=O)NCC1CC1`: 2.35%; for `Cc1onc(-c2c(Cl)cccc2Cl)c1COC(=O)c1ccc(Cl)cc1[N+](=O)[O-]`: 17.7%; for `CC(C)c1ccc(NC(=O)C2CC(=O)N=C(N)S2)cc1` (centres unmarked): 3.33%.

Take `CCCn1nc2cc(C(=O)NC3CCCc4ccccc43)ccc2c1OCC` (centres unmarked): the “hERG current change (%, negative = inhibition) at 1uM” value is on record as 17%. The same measure for `Cc1ccc(-c2nnc(SC(C)C(=O)NCC3CCCO3)nc2-c2ccc(C)cc2)cc1` (centres unmarked): 13.7%; for `COc1ccc(N2CCN(C(=O)CSc3ncnc4c3cnn4-c3ccccc3C)CC2)cc1`: 9.02%. In the case of `CC(NC(=O)Cc1ccccc1F)c1ccc(F)cc1` (centres unmarked), the “hERG current change (%, negative = inhibition) at 1uM” value turned out to be 13.6%. The same measure for `CCCc1nc2c(nnn2Cc2ccccc2F)c(=O)[nH]1`: 8.3%; for `CNC(=O)c1cc2cccc(OC)c2oc1=O`: 8.51%. As to `COc1ccccc1N(C(=O)c1ccco1)C(C(=O)NC1CCCC1)c1cccs1` (centres unmarked), the “hERG current change (%, negative = inhibition) at 1uM” value is 2.48%. The same measure for `Cc1cc2oc(C(=O)NCCc3ccc(S(N)(=O)=O)cc3)c(C)c2cc1C`: 17.3%. On to `Cc1nc(NC(=S)Nc2ccccc2)sc1C`, for which the “hERG current change (%, negative = inhibition) at 1uM” value came out at 8.68%.

Consider `N#C/C(=C\c1ccc(N2CCOCC2)o1)C(=O)Nc1ccc(O)cc1`, for which the “hERG current change (%, negative = inhibition) at 1uM” value is listed as 0.297%.

For the origin of these results see article PMC4336329 (PLoS ONE, 2015).
